In all, about 310,000 compounds went through this assay and about 2,200 (0.71%) showed an effect of 50% or more. The effect is printed as a negative number. Some of the results follow.
molecular target: human ether-à-go-go-related gene (hERG) potassium channel (human, UniProt Q12809); assay: primary screen, population patch clamp on CHO cells stably expressing hERG
Sequence (Q12809 whole entry, looked up): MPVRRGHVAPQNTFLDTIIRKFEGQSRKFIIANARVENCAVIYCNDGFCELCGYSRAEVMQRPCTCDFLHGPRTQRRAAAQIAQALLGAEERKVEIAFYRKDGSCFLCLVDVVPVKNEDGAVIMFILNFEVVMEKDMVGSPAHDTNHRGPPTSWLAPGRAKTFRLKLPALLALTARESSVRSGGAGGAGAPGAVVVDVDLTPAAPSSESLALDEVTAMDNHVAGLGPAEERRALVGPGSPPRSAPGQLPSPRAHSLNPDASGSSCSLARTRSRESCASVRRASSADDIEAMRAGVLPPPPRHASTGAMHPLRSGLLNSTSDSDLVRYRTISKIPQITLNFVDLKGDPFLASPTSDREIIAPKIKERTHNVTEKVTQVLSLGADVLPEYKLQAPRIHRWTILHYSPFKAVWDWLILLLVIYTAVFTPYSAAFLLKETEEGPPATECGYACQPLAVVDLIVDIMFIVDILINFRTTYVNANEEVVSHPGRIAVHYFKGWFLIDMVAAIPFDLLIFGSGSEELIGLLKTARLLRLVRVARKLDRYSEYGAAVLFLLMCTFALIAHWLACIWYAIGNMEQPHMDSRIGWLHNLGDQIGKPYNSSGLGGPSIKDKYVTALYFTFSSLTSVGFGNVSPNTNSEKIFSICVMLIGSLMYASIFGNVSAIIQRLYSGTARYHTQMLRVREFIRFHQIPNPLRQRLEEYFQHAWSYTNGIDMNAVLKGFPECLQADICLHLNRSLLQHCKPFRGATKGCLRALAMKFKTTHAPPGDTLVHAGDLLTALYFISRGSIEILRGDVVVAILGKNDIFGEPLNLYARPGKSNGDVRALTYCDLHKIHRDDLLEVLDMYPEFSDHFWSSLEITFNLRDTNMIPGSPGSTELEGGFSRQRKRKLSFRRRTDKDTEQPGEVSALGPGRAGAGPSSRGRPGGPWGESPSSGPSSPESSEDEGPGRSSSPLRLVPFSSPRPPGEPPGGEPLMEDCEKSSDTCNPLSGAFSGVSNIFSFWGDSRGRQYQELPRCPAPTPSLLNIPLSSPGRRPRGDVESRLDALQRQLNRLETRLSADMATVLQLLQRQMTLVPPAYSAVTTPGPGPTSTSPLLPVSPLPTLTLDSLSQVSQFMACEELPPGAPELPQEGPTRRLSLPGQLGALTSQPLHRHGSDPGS

Going from `COC(=O)C(NC(C)=O)(Nc1nc(C)cs1)C(F)(F)F` (stereo not drawn) to `COc1ccc(C)cc1NC(=O)C(=O)N1CCCC1`, the “hERG current change (%, negative = inhibition) at 1uM” value rises from 11.4% to 17.4%.

Going from `CCOc1ccc(N2CC(C(=O)NCCc3c[nH]c4ccc(OC)cc34)CC2=O)cc1` (stereo not drawn) to `CCOc1ccc(-n2c(SCC(=O)NCc3ccco3)nc3ccccc3c2=O)cc1`, the “hERG current change (%, negative = inhibition) at 1uM” value rises from -0.475% to 4.89%.

Compared with `COc1ccc(NS(=O)(=O)c2ccc3nc(COc4ccc5ccccc5c4)[nH]c3c2)cc1`, `COc1ccc(Cn2cccc(NC(=O)Nc3ccc(F)cc3)c2=O)cc1` is higher in “hERG current change (%, negative = inhibition) at 1uM” value: 20.2% for the first, 23.4% for the second.

Going from `Cc1ccc(-c2cc(C(=O)N/N=C/C(Br)=C/c3ccccc3)n[nH]2)o1` to `O=C(/C=C/c1ccc(Cl)cc1)NCCSc1ccccc1`, the “hERG current change (%, negative = inhibition) at 1uM” value falls from 15.5% to 2.26%.

Going from `CCOc1ccc2nc(NC(=O)/C=C/c3ccc4c(c3)OCO4)sc2c1` to `COc1ccc2nc(/N=C/c3c(C)[nH]n(-c4ccc(C)cc4C)c3=O)sc2c1`, the “hERG current change (%, negative = inhibition) at 1uM” value rises from 14.8% to 15.9%.

First: Cc1ccc(CNC(=O)CC(NC(=O)c2ccccc2)c2ccccc2)cc1 (stereo not drawn)
Second: O=C(Nc1ccccc1)C1CCCN1C(=O)NCc1ccccc1 (stereo not drawn)
The “hERG current change (%, negative = inhibition) at 1uM” value of the first is lower: 2.63% for the first, 12.1% for the second.

First: CC1Oc2cc3oc4c(O)c5c(cc4c(=O)c3c(O)c2C1(C)C)C=CC(C)(C)O5 (stereo not drawn)
Second: CNC(=S)N(Cc1ccco1)Cc1cc2cc(OC)c(OC)cc2[nH]c1=O
The “hERG current change (%, negative = inhibition) at 1uM” value of the first is lower: 3.2% for the first, 5.35% for the second.

First: COc1ccc(-n2ccsc2=S)cc1
Second: COc1ccc(-c2nc(N3CCOCC3)nc3n[nH]c(N)c23)cc1
The “hERG current change (%, negative = inhibition) at 1uM” value of the first is lower: 6.93% for the first, 8.07% for the second.

First: COc1ccc(C=O)cc1CN1CCCN(Cc2ccccc2F)S1(=O)=O
Second: C=C(C)c1cccc(C(C)(C)NC(=O)N2CCN(c3ccccc3OC)CC2)c1
The “hERG current change (%, negative = inhibition) at 1uM” value of the first is lower: 8.05% for the first, 10.4% for the second.

First: CN(C)/C=N/NC(=O)c1ccc(Cl)cc1
Second: Cn1cncc1COC(=O)c1ccc(Cl)cc1
The “hERG current change (%, negative = inhibition) at 1uM” value of the first is higher: 17.3% for the first, 14.4% for the second.

Compared with `Cc1ccc(S(=O)(=O)N2[C@@H](c3ccccc3)C(C(=O)O)=CC[C@H]2c2ccc3c(c2)OCO3)cc1`, `O=C(c1ccccc1[N+](=O)[O-])N1CCN(Cc2ccc3c(c2)OCO3)CC1` is lower in “hERG current change (%, negative = inhibition) at 1uM” value: 8.76% for the first, 8.15% for the second.

Compared with `CCN1CCN(S(=O)(=O)c2ccc(Cl)c(C(=O)NCCc3ccccc3)c2)CC1`, `O=S(=O)(c1ccc(F)cc1)N1CCN(C(=S)NCCc2ccccc2)CC1` is higher in “hERG current change (%, negative = inhibition) at 1uM” value: 5.65% for the first, 11.5% for the second.

Compared with `O=C(N/N=C\c1ccc([N+](=O)[O-])o1)c1cncc(Br)c1`, `C/C(=N\NC(=O)c1cc2c(s1)CCC(C)C2)c1ccncc1` (stereo not drawn) is higher in “hERG current change (%, negative = inhibition) at 1uM” value: -6.83% for the first, 5.22% for the second.

First: CCn1cc(CN2CCCC(C(=O)Nc3ccc(-c4cscn4)cc3)C2)cn1 (stereo not drawn)
Second: O=C(Oc1coc(CSc2nnc(NC(=O)C3CC3)s2)cc1=O)c1ccccc1
The “hERG current change (%, negative = inhibition) at 1uM” value of the first is lower: 7.21% for the first, 8.36% for the second.

Going from `O=c1c(S(=O)(=O)c2ccc(Cl)cc2)cn(Cc2cccc(F)c2)c2ccc(F)cc12` to `Nc1ccc2nc(-c3ccc(-c4nc5ccc(N)cc5[nH]4)cc3)[nH]c2c1`, the “hERG current change (%, negative = inhibition) at 1uM” value falls from 16.9% to 10.1%.

Going from `CCOC(=O)c1nc(C)nc(Sc2n[nH]c(-c3cc(Cl)cc(Cl)c3)n2)c1C` to `COc1cc(NC(=O)Nc2ccc(Cl)c(Cl)c2)c(C(=O)O)cc1OC`, the “hERG current change (%, negative = inhibition) at 1uM” value rises from 9.95% to 13.2%.

First: COc1cc2c(cc1OC)C(c1cccs1)CC(=O)N2 (stereo not drawn)
Second: COc1ccc(S(=O)(=O)N/N=C(/C)c2ccncc2)cc1OC
The “hERG current change (%, negative = inhibition) at 1uM” value of the first is higher: 9.91% for the first, 9.83% for the second.

Going from `O=C(NCC(O)COc1ccc([N+](=O)[O-])cc1)c1ccccc1` (stereo not drawn) to `CCCCC(CCC(=O)Nc1cccc([N+](=O)[O-])c1)C(=O)O` (stereo not drawn), the “hERG current change (%, negative = inhibition) at 1uM” value rises from -17.5% to 11.2%.

Compared with `O=C1CCc2cc(NS(=O)(=O)c3ccccc3)cc3c2N1CCC3`, `CCCCC(=O)NC(=S)NNS(=O)(=O)c1ccccc1` is lower in “hERG current change (%, negative = inhibition) at 1uM” value: 20.9% for the first, -12.4% for the second.

Going from `Cc1ccc(CN(C)C(=O)C2CCC(=O)N(C3CCCCCC3)C2)cc1` (stereo not drawn) to `O=C1C=Cc2ccccc2C1=O`, the “hERG current change (%, negative = inhibition) at 1uM” value rises from 10.9% to 14.7%.

Compared with `CC1=N/C(=C/c2cccnc2)C(=O)O1`, `CCCCNC(=O)Nc1nnc(SCC(=O)OCC)s1` is lower in “hERG current change (%, negative = inhibition) at 1uM” value: 14.6% for the first, -45.1% for the second.

From publication PMC4336329 (PLoS ONE, 2015)
